# In all, about 50,000 compounds went through this assay and about 800 (1.6%) showed an effect of 50% or more. Some of the results follow.
# Molecular target: Bcl-2-like protein 10 (Homo sapiens) (UniProt Q9HD36)
# Experiment: TR3 peptide-Bcl-B binding displacers, biochemical primary FP assay, phenotype converters (AID 1240);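 also: 0% = Bcl-B with tracer peptide and DMSO and 100% = tracer peptide lacking Bcl-B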
# Settings: GST-Bcl-B / FITC-TR3 peptide fluorescence polarization; stronger effect = higher value; compound at 3.75 mg/L
# Chain of UniProt Q9HD36 (Q9HD36 whole entry, looked up): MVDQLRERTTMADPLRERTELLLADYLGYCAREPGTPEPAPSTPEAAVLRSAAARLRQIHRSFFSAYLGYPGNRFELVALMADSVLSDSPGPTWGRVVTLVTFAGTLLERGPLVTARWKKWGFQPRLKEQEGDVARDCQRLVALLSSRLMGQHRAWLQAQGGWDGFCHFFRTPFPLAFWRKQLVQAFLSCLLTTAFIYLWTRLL
row,SMILES,displacement
1,CC(C)OC(=O)CSC1=C(C#N)C(c2ccc(Cl)cc2Cl)CC(=O)N1 (configuration not stated),-0.6%
2,Cc1cc(C)n2c(SCc3ccc(Br)cc3)nnc2n1,-4%
3,CN(C)c1ccc(/C=N/NC(=O)CN2CCCCC2)cc1Br,3.3%
4,N#CCC(=O)N1CCN(C(c2ccccc2)c2ccccc2)CC1,0.5%
5,CSCCOC(=O)C1=C(C)NC(=O)NC1c1ccc([N+](=O)[O-])cc1 (configuration not stated),5.2%
6,O=C1CC(S(=O)(=O)O)c2ccccc2/C1=N/O (configuration not stated),-0.8%
7,O=[N+]([O-])c1ccc(NCCNS(=O)(=O)c2ccccc2)cc1,-0.9%
8,CCC(=O)c1ccc(N2CCN(C(=O)c3cc(F)c(F)cc3Cl)CC2)c(F)c1,-8.7%
9,N#C/C(=C\c1ccccc1Cl)C(N)=O,-2.5%
10,COc1cc(NC(=O)COc2ccc(Cl)cc2Br)c(OC)cc1Cl,2.5%
11,CCOC(=O)COc1ccc(Br)cc1/C=C1/C(=O)NN(c2cccc(Cl)c2)C1=O,3.9%
12,CCOc1ccc(C(=O)Nc2ccc(NC(=O)c3ccco3)c(OC)c2)cc1Br,-3.1%
13,CN(/N=C/c1cc([N+](=O)[O-])ccc1O)c1ccccc1,4.7%
14,Cc1nc2ccccc2n1Cc1ccc(Br)cc1,7.1%
15,Cn1c(NC(=O)c2ccc(Cl)cc2)nc2ccccc21,7.4%
16,COc1ccc(C(=O)Oc2ccc3c(C)cc(=O)oc3c2C(C)=O)cc1OC,-1.3%
17,CCc1cccc(C)c1NC(=O)COc1ccc(C)c(C)c1,-1.3%
18,Cc1cccc(N2CCN(C(=O)/C=C/c3ccc(Cl)cc3)CC2)c1C,-8.2%
19,CCOc1ccc(NC(=O)CSc2nc3ccccc3c(=O)n2-c2ccccc2)cc1,9.1%
20,CCOC(=O)c1sc(NC(=O)c2ccc(OCC)c(Cl)c2)nc1C,23.8%
21,O=C(COc1ccc(Cl)cc1)NNC(=O)C(=O)NCCO,-8%
22,CCc1c(C)n(CC(=O)N/N=C/c2ccc(Cl)cc2)n2cnnc2c1=O,-8.9%
23,COc1ccc(CC(=O)NCCC2=CCCCC2)cc1,-1.5%
24,Cc1ccc(C)c(OCC(O)CN2CC(C)CC(C)C2)c1 (configuration not stated),3.2%

row,SMILES,displacement
1,CCOP(=O)(OCC)C(Nc1ccccc1)c1ccc2c(c1)OCO2 (configuration not stated),13.6%
2,Cc1cc(=O)oc2c(C=NC3CCCCC3)c(O)ccc12,-7.2%
3,COc1ccc(O)c(CN2CCN(Cc3ccc(SC)cc3)CC2)c1,0.9%
4,Cc1c(C(=O)Nc2ccc(NC(=O)c3ccco3)c(Cl)c2)cccc1[N+](=O)[O-],-0.9%
5,CCN(CC)CCN1C(=O)C(=O)/C(=C(/O)c2ccc(Br)cc2)C1c1ccccc1F (configuration not stated),-4%
6,COc1cccc(C(=O)/C=C/c2ccc(OC)c(OC)c2)c1,3.8%
7,O=C1Nc2ccccc2C1=Nc1ccc(Br)cc1,5.3%
8,O=C(NCc1ccc(Cl)c(Cl)c1)c1cccc(F)c1,3.8%
9,O=C1Nc2c(Cl)cc(Cl)c3cccc1c23,1.5%
10,COc1ccc(-c2nc3cc(NC(=O)C(C)C)ccc3o2)cc1OC,13.1%
11,Cc1ccc(SCCc2ccncc2)cc1,2.5%
12,Oc1ccccc1C(=S)N1CCCCC1,-2.7%
13,O=C(Nc1nc2ccc([N+](=O)[O-])cc2s1)c1cccc(F)c1,10.9%
14,S=C(NCCSCc1ccc(Cl)cc1)Nc1ccccc1,6.3%
15,COc1cccc(NC(=O)C(=O)N/N=C/c2ccccc2OC)c1,1.4%
16,Cc1cc(/C=N/NC(=O)c2ccc(CN3CCOCC3)cc2)c(C)n1-c1ccccc1,-19%
17,O=C(Nc1ncc(Cc2cc(Cl)ccc2Cl)s1)c1cccs1,9.1%
18,O=C(c1cccs1)N1CCCc2ccccc21,-4.2%
19,O=C(c1cc(F)c(F)cc1[N+](=O)[O-])N1CCOCC1,-10.1%
20,CN(C)c1ccc(NC(=O)c2ccc(Cl)cc2)cc1,12.9%
21,COc1ccc(CC(=O)NCC2(c3ccc(OC)c(OC)c3)CCCC2)cc1,-12.5%
22,C=CCc1ccccc1OCCn1cc(/C=C2/SC(=S)N(C)C2=O)c2ccccc21,-2.2%
23,COC(=O)c1ccc(-n2c(C)cc(C=C3C(=O)N(C)C(=O)N(C)C3=O)c2C)cc1,24.9%
24,CCOC(=O)c1cnn(C(=O)OCC)c1N,-12.9%

row,SMILES,displacement
1,CCC(C)c1ccc(NC(=O)C2C3C=CC(C3)C2C(=O)O)cc1 (configuration not stated),3.4%
2,O=C1CS/C(=N/N=C/c2ccc(-c3ccc([N+](=O)[O-])cc3)o2)N1,41.1%
3,COc1ccccc1/C=N/NC(=O)c1cc(-c2ccc(Cl)cc2)n[nH]1,-5.4%
4,Cc1cc(/C=C2/NC(=O)NC2=O)c(C)n1-c1ccc(Br)cc1,12.4%
5,COC(=O)c1sccc1NC(=O)c1ccc(Cl)cc1Cl,-13.8%
6,CC(=O)c1ccc(N2C(=O)C3C(C2=O)C2(C)c4ccccc4C3(C)c3ccccc32)cc1 (configuration not stated),5.7%
7,O=C(c1ccccc1)c1cccc(NC2=NS(=O)(=O)c3ccccc32)c1,0.4%
8,Cc1ccc(C(=O)c2ccc(Br)cc2)cc1S(=O)(=O)Nc1cccc(O)c1,-2.9%
9,COc1ccc(NC(=O)CN(c2ccc(Br)cc2)S(C)(=O)=O)c(OC)c1,3.9%
10,CCCCCCCC1=NN2C(=O)CC(=O)N=C2S1,12.4%
11,CC(C)(C)NC(=O)C(=O)N/N=C/c1c(Cl)cccc1Cl,-0.9%
12,O=C(Nc1ccc2nn(-c3ccccc3)nc2c1)c1cc(I)ccc1Cl,-0.6%
13,CC1=C(C(=O)OC(C)C)C(c2cccs2)C(C(=O)OC(C)C)=C(C)N1,1.8%
14,Brc1cccc(CN2CCN(Cc3ccncc3)CC2)c1,-22.5%
15,CC(C)(C)C(=O)Nc1ccccc1C(=O)Nc1ccccc1,5.6%
16,CCCc1nc(-c2ccccc2)c(-c2ccc(OC)c(OC)c2)c(=O)[nH]1,-12.6%
17,CCOC(=O)C1=C(C)N=c2s/c(=C\c3ccc([N+](=O)[O-])cc3)c(=O)n2C1c1ccc(OC)cc1OC (configuration not stated),1.9%
18,O=c1/c(=C/c2ccccc2OCc2ccc(Cl)cc2)sc2nc3ccccc3n12,2.3%
19,O=C(c1ccc(F)cc1)N1CCN(C(=O)c2cccc(Cl)c2)CC1,-12.7%
20,COc1ccccc1N=Cc1c(O)c(C(=O)Nc2ccccc2)cc2ccccc12,105%
21,O=C1NC(=O)/C(=C/c2ccccc2OCc2ccc(Cl)cc2)S1,2.7%
22,COc1ccc(/C=C/C(=O)c2ccc(Cl)cc2)cc1,13%
23,CCc1c(C)sc(NC(=O)CCc2ccc(OC)cc2)c1C#N,0.5%
24,CCOC(=O)CN1C(c2ccccc2OC)Nc2ccc(Br)cc2C1c1ccccc1 (configuration not stated),15.6%

# — PubChem BioAssay AID1240 (Sanford-Burnham Center for Chemical Genomics, 2008)
